# Experimental data: article PMC5062570 (Nature Communications, 2016)
# Assays:
# [1] = target: PF-7802-labelled proteins in ARPE-19 cells (Homo sapiens, UniProt P05023)
# [2] = target: PF-7802-labelled proteins in ARPE-19 cells (Homo sapiens, UniProt P07237)
# [3] = target: PF-7802-labelled proteins in ARPE-19 cells (Homo sapiens, UniProt P0CG39)
# [4] = target: PF-7802-labelled proteins in ARPE-19 cells (Homo sapiens, UniProt P29401)
# [5] = target: PF-7802-labelled proteins in ARPE-19 cells (Homo sapiens, UniProt P45880)
# [6] = target: PF-7802-labelled proteins in ARPE-19 cells (Homo sapiens, UniProt P47755); settings: protein CAPZA2 F-actin-capping protein subunit alpha-2 (P47755)
# [7] = target: PF-7802-labelled proteins in ARPE-19 cells (Homo sapiens, UniProt P51148); settings: protein RAB5C Ras-related protein Rab-5C, P51148
# [8] = target: PF-7802-labelled proteins in ARPE-19 cells (Homo sapiens, UniProt Q15149)
# [9] = target: PF-7802-labelled proteins in ARPE-19 cells (Homo sapiens, UniProt Q71U36); settings: Q71U36 TUBA1A Tubulin alpha-1A chain
# [10] = target: PF-7802-labelled proteins in ARPE-19 cells (Homo sapiens, UniProt Q9Y277); settings: VDAC3 Voltage-dependent anion-selective channel protein 3 (Q9Y277)
# [11] = target: PF-7802-labelled proteins in ARPE-19 cells (Homo sapiens, UniProt P07195); settings: protein LDHB L-lactate dehydrogenase B chain (P07195); replicates in separate columns
# [12] = target: PF-7802-labelled proteins in ARPE-19 cells (Homo sapiens, UniProt P11233); settings: protein RALA Ras-related protein Ral-A, P11233
# [13] = target: PF-7802-labelled proteins in ARPE-19 cells (Homo sapiens, UniProt P13073); settings: protein COX4I1 Cytochrome c oxidase subunit 4 isoform 1, mitochondrial (P13073)
# [14] = target: PF-7802-labelled proteins in ARPE-19 cells (Homo sapiens, UniProt P19012); settings: protein KRT15 Keratin, type I cytoskeletal 15 (P19012); one column per replicate
# [15] = target: PF-7802-labelled proteins in ARPE-19 cells (Homo sapiens, UniProt P24539); settings: protein ATP5F1 ATP synthase subunit b, mitochondrial (P24539)
# [16] = target: PF-7802-labelled proteins in ARPE-19 cells (Homo sapiens, UniProt P39019); settings: protein RPS19 40S ribosomal protein S19, P39019
# [17] = target: PF-7802-labelled proteins in ARPE-19 cells (Homo sapiens, UniProt P53985); settings: SLC16A1 Monocarboxylate transporter 1 (P53985)
# [18] = target: PF-7802-labelled proteins in ARPE-19 cells (Homo sapiens, UniProt P62070); settings: protein RRAS2 Ras-related protein R-Ras2, P62070
# [19] = target: PF-7802-labelled proteins in ARPE-19 cells (Homo sapiens, UniProt P62306); settings: SNRPF Small nuclear ribonucleoprotein F (P62306)
# [20] = target: PF-7802-labelled proteins in ARPE-19 cells (Homo sapiens, UniProt P63173); settings: protein RPL38 60S ribosomal protein L38, P63173
# [21] = target: PF-7802-labelled proteins in ARPE-19 cells (Homo sapiens, UniProt Q6NZI2); settings: protein PTRF Polymerase I and transcript release factor, Q6NZI2
# [22] = target: PF-7802-labelled proteins in ARPE-19 cells (Homo sapiens, UniProt Q86UP2); settings: protein KTN1 Kinectin (Q86UP2); replicates in separate columns
# [23] = target: PF-7802-labelled proteins in ARPE-19 cells (Homo sapiens, UniProt Q8TCT9); settings: protein HM13 Minor histocompatibility antigen H13 (Q8TCT9); one column per replicate
# [24] = target: PF-7802-labelled proteins in ARPE-19 cells (Homo sapiens, UniProt Q96PK6); settings: protein RBM14 RNA-binding protein 14, Q96PK6
# [25] = target: PF-7802-labelled proteins in ARPE-19 cells (Homo sapiens, UniProt Q9BQB6); settings: protein VKORC1 Vitamin K epoxide reductase complex subunit 1 (Q9BQB6); replicate R2
# [26] = target: PF-7802-labelled proteins in ARPE-19 cells (Homo sapiens, UniProt Q9Y4L1); settings: protein HYOU1 Hypoxia up-regulated protein 1 (Q9Y4L1); one column per replicate
# Chain of UniProt P45880 (P45880 whole entry): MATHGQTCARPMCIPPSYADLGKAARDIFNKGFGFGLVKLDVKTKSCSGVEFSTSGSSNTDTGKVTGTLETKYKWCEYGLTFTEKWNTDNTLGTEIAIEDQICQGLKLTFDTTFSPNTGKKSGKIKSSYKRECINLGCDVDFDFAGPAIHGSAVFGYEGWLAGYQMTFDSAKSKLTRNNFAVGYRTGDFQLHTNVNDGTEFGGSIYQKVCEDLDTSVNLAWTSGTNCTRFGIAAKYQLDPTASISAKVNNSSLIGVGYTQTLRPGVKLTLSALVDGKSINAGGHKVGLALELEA
# Chain of UniProt P19012 (P19012 whole entry): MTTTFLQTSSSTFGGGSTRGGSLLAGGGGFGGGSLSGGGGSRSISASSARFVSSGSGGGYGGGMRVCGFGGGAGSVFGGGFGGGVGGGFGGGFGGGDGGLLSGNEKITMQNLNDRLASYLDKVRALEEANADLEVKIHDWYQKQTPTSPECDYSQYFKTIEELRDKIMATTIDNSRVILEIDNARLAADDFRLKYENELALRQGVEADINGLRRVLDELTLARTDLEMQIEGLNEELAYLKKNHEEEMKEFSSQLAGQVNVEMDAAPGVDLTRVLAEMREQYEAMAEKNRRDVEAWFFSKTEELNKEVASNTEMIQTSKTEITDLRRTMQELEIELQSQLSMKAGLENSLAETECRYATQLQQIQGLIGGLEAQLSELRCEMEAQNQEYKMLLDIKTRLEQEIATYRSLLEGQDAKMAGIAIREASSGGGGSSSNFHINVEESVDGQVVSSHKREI
# Chain of UniProt P07195 (P07195 whole entry): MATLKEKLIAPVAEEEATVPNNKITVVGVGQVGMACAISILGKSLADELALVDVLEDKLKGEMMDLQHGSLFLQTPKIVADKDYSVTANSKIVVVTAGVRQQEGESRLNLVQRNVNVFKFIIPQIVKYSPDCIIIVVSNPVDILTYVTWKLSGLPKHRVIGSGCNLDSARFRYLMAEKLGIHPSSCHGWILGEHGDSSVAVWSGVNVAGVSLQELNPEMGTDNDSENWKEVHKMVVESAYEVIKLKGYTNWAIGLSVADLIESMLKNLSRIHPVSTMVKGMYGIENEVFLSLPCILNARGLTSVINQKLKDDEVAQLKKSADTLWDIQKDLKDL
# Chain of UniProt P0CG39 (P0CG39 whole entry): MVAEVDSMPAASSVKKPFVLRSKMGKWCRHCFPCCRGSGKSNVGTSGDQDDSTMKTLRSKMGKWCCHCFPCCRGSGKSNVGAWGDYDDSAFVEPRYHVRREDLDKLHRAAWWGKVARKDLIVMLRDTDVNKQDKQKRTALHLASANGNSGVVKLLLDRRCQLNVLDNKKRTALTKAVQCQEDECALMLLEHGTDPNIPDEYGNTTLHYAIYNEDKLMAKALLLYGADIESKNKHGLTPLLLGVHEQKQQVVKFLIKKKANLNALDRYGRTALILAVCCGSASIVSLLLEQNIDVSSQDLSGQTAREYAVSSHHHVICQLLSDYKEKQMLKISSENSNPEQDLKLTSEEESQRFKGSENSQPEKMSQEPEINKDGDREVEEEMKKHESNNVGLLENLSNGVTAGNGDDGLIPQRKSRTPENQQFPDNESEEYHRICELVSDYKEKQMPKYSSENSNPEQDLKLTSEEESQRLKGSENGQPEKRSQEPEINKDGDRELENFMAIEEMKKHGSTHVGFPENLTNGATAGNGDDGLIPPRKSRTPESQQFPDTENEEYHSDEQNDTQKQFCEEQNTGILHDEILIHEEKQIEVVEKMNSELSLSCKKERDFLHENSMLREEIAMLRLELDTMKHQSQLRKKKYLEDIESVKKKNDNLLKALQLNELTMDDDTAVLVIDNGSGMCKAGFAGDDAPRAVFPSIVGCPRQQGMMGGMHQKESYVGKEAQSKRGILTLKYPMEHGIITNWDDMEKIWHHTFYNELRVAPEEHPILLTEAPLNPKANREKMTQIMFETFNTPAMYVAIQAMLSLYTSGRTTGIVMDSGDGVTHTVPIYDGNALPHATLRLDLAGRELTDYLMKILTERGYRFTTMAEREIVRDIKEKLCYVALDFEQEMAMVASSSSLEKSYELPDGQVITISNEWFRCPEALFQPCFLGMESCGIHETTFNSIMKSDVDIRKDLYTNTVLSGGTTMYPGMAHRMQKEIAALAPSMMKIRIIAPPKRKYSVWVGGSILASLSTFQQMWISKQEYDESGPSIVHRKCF
# Chain of UniProt P29401 (P29401 whole entry): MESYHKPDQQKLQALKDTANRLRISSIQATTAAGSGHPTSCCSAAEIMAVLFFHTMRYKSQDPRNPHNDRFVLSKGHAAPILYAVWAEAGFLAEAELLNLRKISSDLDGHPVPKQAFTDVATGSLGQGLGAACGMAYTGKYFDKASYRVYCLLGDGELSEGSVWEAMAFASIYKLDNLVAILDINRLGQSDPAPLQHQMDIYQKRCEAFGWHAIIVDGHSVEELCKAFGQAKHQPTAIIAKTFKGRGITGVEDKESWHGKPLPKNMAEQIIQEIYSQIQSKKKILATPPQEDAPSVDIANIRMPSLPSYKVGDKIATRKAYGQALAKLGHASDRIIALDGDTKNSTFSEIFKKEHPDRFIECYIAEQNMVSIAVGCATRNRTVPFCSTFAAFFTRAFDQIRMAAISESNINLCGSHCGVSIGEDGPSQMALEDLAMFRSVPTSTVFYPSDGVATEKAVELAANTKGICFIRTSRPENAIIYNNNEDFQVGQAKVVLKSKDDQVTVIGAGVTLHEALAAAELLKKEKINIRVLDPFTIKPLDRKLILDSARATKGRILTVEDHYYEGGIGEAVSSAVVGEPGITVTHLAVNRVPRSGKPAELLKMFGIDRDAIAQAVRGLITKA
# Chain of UniProt Q8TCT9 (Q8TCT9 whole entry): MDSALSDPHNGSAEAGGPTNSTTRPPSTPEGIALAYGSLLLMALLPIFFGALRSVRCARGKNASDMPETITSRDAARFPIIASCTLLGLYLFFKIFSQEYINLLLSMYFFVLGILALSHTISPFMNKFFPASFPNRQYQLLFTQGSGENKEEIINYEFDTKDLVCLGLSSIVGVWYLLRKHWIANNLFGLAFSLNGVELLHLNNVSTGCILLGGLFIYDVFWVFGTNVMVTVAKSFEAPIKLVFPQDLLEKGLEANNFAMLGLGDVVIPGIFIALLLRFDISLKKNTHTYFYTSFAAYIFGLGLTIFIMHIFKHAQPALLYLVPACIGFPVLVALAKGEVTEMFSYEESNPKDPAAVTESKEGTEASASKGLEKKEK
# Chain of UniProt P62306 (P62306 whole entry): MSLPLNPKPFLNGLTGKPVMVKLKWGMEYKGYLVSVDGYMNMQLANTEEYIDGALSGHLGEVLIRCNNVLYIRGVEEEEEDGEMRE
# Chain of UniProt P62070 (P62070 whole entry): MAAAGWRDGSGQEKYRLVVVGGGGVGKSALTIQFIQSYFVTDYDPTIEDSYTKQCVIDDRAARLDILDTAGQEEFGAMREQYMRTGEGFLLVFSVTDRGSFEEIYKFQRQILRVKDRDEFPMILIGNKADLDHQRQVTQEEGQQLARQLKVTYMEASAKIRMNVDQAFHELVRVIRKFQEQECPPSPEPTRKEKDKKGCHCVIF
# Chain of UniProt Q86UP2 (Q86UP2 whole entry): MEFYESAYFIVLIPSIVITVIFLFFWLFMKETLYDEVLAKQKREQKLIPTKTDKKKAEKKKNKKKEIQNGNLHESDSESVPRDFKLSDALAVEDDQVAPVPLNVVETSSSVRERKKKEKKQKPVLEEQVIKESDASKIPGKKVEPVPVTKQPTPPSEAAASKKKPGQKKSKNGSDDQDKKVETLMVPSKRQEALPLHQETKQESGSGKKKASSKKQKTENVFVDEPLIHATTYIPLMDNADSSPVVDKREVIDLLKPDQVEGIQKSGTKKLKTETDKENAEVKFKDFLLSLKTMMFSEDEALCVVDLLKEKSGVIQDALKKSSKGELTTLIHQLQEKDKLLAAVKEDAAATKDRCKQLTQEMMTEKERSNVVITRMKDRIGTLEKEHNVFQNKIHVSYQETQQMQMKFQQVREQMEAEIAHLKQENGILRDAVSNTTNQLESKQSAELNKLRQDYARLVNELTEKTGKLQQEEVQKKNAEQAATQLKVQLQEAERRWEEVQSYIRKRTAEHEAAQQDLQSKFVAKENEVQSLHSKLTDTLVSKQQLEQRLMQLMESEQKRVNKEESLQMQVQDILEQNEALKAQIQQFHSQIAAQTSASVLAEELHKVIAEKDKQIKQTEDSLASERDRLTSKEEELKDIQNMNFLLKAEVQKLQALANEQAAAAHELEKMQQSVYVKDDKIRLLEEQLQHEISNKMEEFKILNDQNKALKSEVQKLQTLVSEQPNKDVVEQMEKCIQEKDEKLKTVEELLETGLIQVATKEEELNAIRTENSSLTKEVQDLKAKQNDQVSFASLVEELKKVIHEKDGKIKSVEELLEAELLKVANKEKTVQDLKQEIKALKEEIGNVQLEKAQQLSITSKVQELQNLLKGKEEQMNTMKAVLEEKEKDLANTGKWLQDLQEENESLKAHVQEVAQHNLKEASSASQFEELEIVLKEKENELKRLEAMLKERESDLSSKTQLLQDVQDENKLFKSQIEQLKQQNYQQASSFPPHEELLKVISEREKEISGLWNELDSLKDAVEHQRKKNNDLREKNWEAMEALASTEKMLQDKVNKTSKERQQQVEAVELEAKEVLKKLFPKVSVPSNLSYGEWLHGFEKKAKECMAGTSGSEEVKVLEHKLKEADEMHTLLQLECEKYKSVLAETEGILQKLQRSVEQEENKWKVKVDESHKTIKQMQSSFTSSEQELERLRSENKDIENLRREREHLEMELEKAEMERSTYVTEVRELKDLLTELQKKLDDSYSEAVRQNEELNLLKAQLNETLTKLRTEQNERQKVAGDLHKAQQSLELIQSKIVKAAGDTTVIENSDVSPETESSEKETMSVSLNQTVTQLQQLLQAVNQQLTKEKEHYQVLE
# Chain of UniProt Q9BQB6 (Q9BQB6 whole entry): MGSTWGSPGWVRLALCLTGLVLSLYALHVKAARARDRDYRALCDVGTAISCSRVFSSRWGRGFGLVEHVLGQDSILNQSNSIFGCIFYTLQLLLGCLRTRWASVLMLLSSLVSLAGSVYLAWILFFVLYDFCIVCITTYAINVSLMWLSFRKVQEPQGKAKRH
structure (smiles),measurement,setting,value
"CNC1CCN(C(=O)C[C@@H](Cc2ccccc2)C(=O)N[C@@H](CSC)C(=O)N[C@@H](CC2CCCCC2)[C@@H](O)C(=O)OC(C)C)CC1 [CP-108671, reference compound]",SILAC ratio (DMSO/CP-108671),[1]; P05023 ATP1A1 Sodium/potassium-transporting ATPase subunit alpha-1,0.86
same,Median SILAC Ratio (Heavy/Light),[1]; protein ATP1A1 Sodium/potassium-transporting ATPase subunit alpha-1 (P05023),1.165
same,SILAC ratio (DMSO/CP-108671),[2]; P07237 P4HB Protein disulfide-isomerase,0.89
same,Median SILAC Ratio (Heavy/Light),"[2]; protein P4HB Protein disulfide-isomerase (P07237), replicates in separate columns",1.179 and 0.8914
same,SILAC ratio (DMSO/CP-108671),[3]; P0CG39 POTEJ POTE ankyrin domain family member J,0.83
same,Median SILAC Ratio (Heavy/Light),"[3]; protein POTEJ POTE ankyrin domain family member J, P0CG39",1.199
same,SILAC ratio (DMSO/CP-108671),[4]; P29401 TKT Transketolase,0.49
same,Median SILAC Ratio (Heavy/Light),[4]; TKT Transketolase (P29401),2.025
same,SILAC ratio (DMSO/CP-108671),[5]; P45880 VDAC2 Voltage-dependent anion-selective channel protein 2,0.89
same,Median SILAC Ratio (Heavy/Light),[5]; VDAC2 Voltage-dependent anion-selective channel protein 2 (P45880),1.195 and 0.8073
same,Median SILAC Ratio (Heavy/Light),[6],1.363
same,Median SILAC Ratio (Heavy/Light),[7],0.617
same,SILAC ratio (DMSO/CP-108671),[8]; Q15149 PLEC Plectin,0.91
same,Median SILAC Ratio (Heavy/Light),"[8]; protein PLEC Plectin (Q15149), replicates in separate columns",1.104
same,SILAC ratio (DMSO/CP-108671),[9],0.45
same,Median SILAC Ratio (Heavy/Light),[10],1.255
Cc1cc([C@H]2C[C@H]3[C@@H](C)SC(N)=N[C@@]3(c3ccc(F)cc3F)CO2)on1 [PF-9283],Median SILAC Ratio (Heavy/Light),[11],2.35 and 1.921
same,Median SILAC Ratio (Heavy/Light),[12],1.184
same,Median SILAC Ratio (Heavy/Light),[13],0.1469
same,Median SILAC Ratio (Heavy/Light),[14],30.6527 and 74.3333
same,Median SILAC Ratio (Heavy/Light),[15],1.2909
same,Median SILAC Ratio (Heavy/Light),[16],1.212
same,Median SILAC Ratio (Heavy/Light),[17],1.26
same,Median SILAC Ratio (Heavy/Light),[18],1.586 and 2.902
same,Median SILAC Ratio (Heavy/Light),[19],1.336 and 0.9887
same,Median SILAC Ratio (Heavy/Light),[20],1.704
same,Median SILAC Ratio (Heavy/Light),[21],1.575
same,Median SILAC Ratio (Heavy/Light),[22],1.726
same,Median SILAC Ratio (Heavy/Light),[23],0.6468 and 1.734
same,Median SILAC Ratio (Heavy/Light),[24],1.076
same,Median SILAC Ratio (Heavy/Light),[25],0.967
same,Median SILAC Ratio (Heavy/Light),[26],0.7694

# Several values for one entry are separate records, joined by “and”; a condition that tells them apart may be missing. Equal entries are not always repeated.
